Experimental data published in the supplement of paper PMC12067230.
This is a noisy data set.
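Note: [psi-pin-] Saccharomyces cerevisiae expressing SupN fusions, induced by 100 µM Cu2SO4, selected 7 d at 30 °C without adenine and uracil, scored by deep sequencing of output versus input.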

Assay: amyloid nucleation score relative to library mode (yeast Sup35 reporter selection) (log enrichment difference); higher = more amyloid nucleation; sequences are the first 22 residues of the Bri2 peptide extended by up to 12 random residues
Conditions: random library (experiment): 1;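 active = nucleation score significantly above 0 at FDR 0.05; inactive = not significantly above 0 or absent from output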
In the case of EASNCFAIRHFENKFAVETLICLAGGVPGSLPSV, the amyloid nucleation score is reported as “inactive”. EASNCFAIRHFENKFAVETLICPNLLVFDKSARH gave an amyloid nucleation score of 5.01. In the case of EASNCFAIRHFENKFAVETLICRSRLQDVREGQA, the amyloid nucleation score is reported as “inactive”. For EASNCFAIRHFENKFAVETLICRNMGAFIWTWYS, the amyloid nucleation score was “inactive”. EASNCFAIRHFENKFAVETLICFEDATSKERGET gave an amyloid nucleation score of 3.71. For EASNCFAIRHFENKFAVETLICWDALFFCASRN, the amyloid nucleation score was 4.5. With EASNCFAIRHFENKFAVETLICRCVLRKVQAWNG the amyloid nucleation score was “inactive”. With EASNCFAIRHFENKFAVETLICLVRS the amyloid nucleation score was “inactive”. For EASNCFAIRHFENKFAVETLICRWTFAAHIKPFS, the amyloid nucleation score was “inactive”. With EASNCFAIRHFENKFAVETLICPY the amyloid nucleation score was “inactive”. In the case of EASNCFAIRHFENKFAVETLICVRDAIIDIMAIA, the amyloid nucleation score is reported as “inactive”. For EASNCFAIRHFENKFAVETLICGNGMQLVLRQSD, the amyloid nucleation score was 7.13. In the case of EASNCFAIRHFENKFAVETLICMITRTPY, the amyloid nucleation score is reported as “inactive”. With EASNCFAIRHFENKFAVETLICRVSQNHESSSYW the amyloid nucleation score was 3.38. In the case of EASNCFAIRHFENKFAVETLICGVLFSSFRSSGV, the amyloid nucleation score is reported as “inactive”. For EASNCFAIRHFENKFAVETLICVTLYEQDLRACG, the amyloid nucleation score was “inactive”. For EASNCFAIRHFENKFAVETLICRITTGARTARWA, the amyloid nucleation score was “inactive”. In the case of EASNCFAIRHFENKFAVETLICLVDMGCQLSSGG, the amyloid nucleation score is reported as 5.1. With EASNCFAIRHFENKFAVETLICLTWVQKVVPWHR the amyloid nucleation score was 5.1. For EASNCFAIRHFENKFAVETLICWEVSTVGEVEVK, the amyloid nucleation score was “inactive”. In the case of EASNCFAIRHFENKFAVETLICTCLLRFKFYSPY, the amyloid nucleation score is reported as “inactive”. Sequence EASNCFAIRHFENKFAVETLICLLVNIS has an amyloid nucleation score of 4.65. Work on EASNCFAIRHFENKFAVETLICNMWSCAKRGGKG yielded an amyloid nucleation score of 4.6. For EASNCFAIRHFENKFAVETLICVWAQGLGVCRRR, the amyloid nucleation score was “inactive”.

Same assay, conditions: random library (experiment): 2
With EASNCFAIRHFENKFAVETLICFTTSRASFDETS the amyloid nucleation score was 1.64. For EASNCFAIRHFENKFAVETLICWATNDPMLVNKV, the amyloid nucleation score was 0.261. With EASNCFAIRHFENKFAVETLICTQPNIVLYKIVV the amyloid nucleation score was 4.99. Work on EASNCFAIRHFENKFAVETLICPKKFLSINVYSK yielded an amyloid nucleation score of 3.21. For EASNCFAIRHFENKFAVETLICLDGRQSCHFEE, the amyloid nucleation score was 2.41. Work on EASNCFAIRHFENKFAVETLICLFMLPERLMCCG yielded an amyloid nucleation score of 4.47. EASNCFAIRHFENKFAVETLICFVCGCMRRGALP showed an amyloid nucleation score of 4.58. Work on EASNCFAIRHFENKFAVETLICTSVQDVRIIW yielded an amyloid nucleation score of 2.56. EASNCFAIRHFENKFAVETLICQPDNCVVIVMVQ gave an amyloid nucleation score of 4.63. In the case of EASNCFAIRHFENKFAVETLICVMCKVLLDFSVK, the amyloid nucleation score is reported as 1.09. With EASNCFAIRHFENKFAVETLICVTYTGTVCDTRL the amyloid nucleation score was “inactive”. With EASNCFAIRHFENKFAVETLICMYPGNHNTRLCE the amyloid nucleation score was “inactive”. With EASNCFAIRHFENKFAVETLICWLTIPTGLFVIR the amyloid nucleation score was “inactive”.

Same assay, conditions: random library (experiment): 3
Work on EASNCFAIRHFENKFAVETLICVTHMPYTMYLSG yielded an amyloid nucleation score of 1.16. For EASNCFAIRHFENKFAVETLICRWDGGSTAWKRG, the amyloid nucleation score was “inactive”. EASNCFAIRHFENKFAVETLICGWLT showed an amyloid nucleation score of 5.48. EASNCFAIRHFENKFAVETLICMCMSSFRTYWTS gave an amyloid nucleation score of 4.13. Work on EASNCFAIRHFENKFAVETLICTFLDSESLLSCL yielded an amyloid nucleation score of 3.23. For EASNCFAIRHFENKFAVETLICIVAGARPRWSGS, the amyloid nucleation score was “inactive”. For EASNCFAIRHFENKFAVETLICVINCGQMVMKTR, the amyloid nucleation score was “inactive”. With EASNCFAIRHFENKFAVETLICYHFLRRVCVEVG the amyloid nucleation score was “inactive”. In the case of EASNCFAIRHFENKFAVETLICLVTLWAARLCGV, the amyloid nucleation score is reported as “inactive”. Work on EASNCFAIRHFENKFAVETLICEASWYP yielded an amyloid nucleation score of 0.405. In the case of EASNCFAIRHFENKFAVETLICTGC, the amyloid nucleation score is reported as “inactive”.
